# In the supplement of paper PMC8728848:
# This is one part of the list.
# B1: Siglec-9 (Homo sapiens), Q9Y336 (protein)
# chain: MLLLLLPLLWGRERAEGQTSKLLTMQSSVTVQEGLCVHVPCSFSYPSHGWIYPGPVVHGYWFREGANTDQDAPVATNNPARAVWEETRDRFHLLGDPHTKNCTLSIRDARRSDAGRYFFKMEKGSIKWNYKHHRLSVNVTALTHRPNILIPGTLESGCPQNLTCSVPWACEQGTPPMISWIGTSVSPLDPSTTRSSVLTLIPQPQDHGTSLTCQVTFPGASVTTNKTVHLNVSYPPQNLTMTVFQGDGTVSTVLGNGSSLSLPEGQSLRLVCAVDAVDSNPPARLSLSWRGLTLCPSQPSNPGVLELPWVHLRDAAEFTCRAQNPLGSQQVYLNVSLQSKATSGVTQGVVGGAGATALVFLSFCVIFVVVRSCRKKSARPAAGVGDTGIEDANAVRGSASQGPLTEPWAEDSPPDQPPPASARSSVGEGELQYASLSFQMVKPWDSRGQEATDTEYSEIKIHR
# What was measured:
# Assay in all cases: glycan array binding signal (z-score within array); higher = stronger binding
# Conditions in all cases: glycan notation: IUPAC condensed, linker removed; mutation: R120K
# [1] = target: Fuc(a1-2)[GalNAc(b1-3)]Gal
# In short: (§1)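 Negative Z-scores can be read as non-binding. The Z-score is calculated within each array and then averaged across arrays of one protein sequence at different concentrations or buffers and across linkers. Arrays, 3228 in all, were curated from the Consortium for Functional Glycomics database and kept only where the protein sequence was available.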
# [2] = target: Fuc(a1-3)GlcNAc
# In short: as §1
# [3] = target: Fuc(a1-3)[Gal(b1-4)]Glc6S
# In short: as §1
# [4] = target: Fuc(a1-3)[Gal(b1-4)]GlcNAc
# In short: as §1
# [5] = target: Fuc(a1-3)[Gal(b1-4)]GlcNAc(b1-2)Man
# In short: as §1
# [6] = target: Fuc(a1-3)[Gal(b1-4)]GlcNAc(b1-2)Man(a1-3)[Fuc(a1-3)[Gal(b1-4)]GlcNAc(b1-2)Man(a1-6)]Man(b1-4)GlcNAc(b1-4)GlcNAc
# In short: as §1
# [7] = target: Fuc(a1-3)[Gal(b1-4)]GlcNAc(b1-2)Man(a1-3)[Fuc(a1-3)[Gal(b1-4)]GlcNAc(b1-2)Man(a1-6)]Man(b1-4)GlcNAc(b1-4)[Fuc(a1-6)]GlcNAc
# In short: as §1
# [8] = target: Fuc(a1-3)[Gal(b1-4)]GlcNAc(b1-3)Gal(b1-3)[Fuc(a1-4)]GlcNAc
# In short: as §1
# [9] = target: Fuc(a1-3)[Gal(b1-4)]GlcNAc(b1-3)Gal(b1-4)[Fuc(a1-3)]GlcNAc
# In short: as §1
# [10] = target: Fuc(a1-3)[Gal(b1-4)]GlcNAc(b1-3)Gal(b1-4)[Fuc(a1-3)]GlcNAc(b1-3)Gal(b1-4)[Fuc(a1-3)]GlcNAc
# In short: as §1
# [11] = target: Fuc(a1-3)[Gal(b1-4)]GlcNAc(b1-3)GalNAc
# In short: as §1
# [12] = target: Fuc(a1-3)[Gal(b1-4)]GlcNAc(b1-6)GalNAc
# In short: as §1
# [13] = target: Fuc(a1-3)[Gal(b1-4)]GlcNAc(b1-6)[Gal(b1-3)GlcNAc(b1-3)]Gal(b1-4)Glc
# In short: as §1
# [14] = target: Fuc(a1-3)[Gal(b1-4)]GlcNAc6S
# In short: as §1
# [15] = target: Fuc(a1-3)[Gal3S(b1-4)]Glc
# In short: as §1
# [16] = target: Fuc(a1-3)[Gal3S(b1-4)]GlcNAc
# In short: as §1
# [17] = target: Fuc(a1-3)[Gal3S(b1-4)]GlcNAc6S
# In short: as §1
# [18] = target: Fuc(a1-3)[GalNAc(b1-4)]GlcNAc
# In short: as §1
# [19] = target: Fuc(a1-3)[GalNAc(b1-4)]GlcNAc6S
# In short: as §1
# [20] = target: Fuc(a1-4)GlcNAc
# In short: as §1
# [21] = target: Fuc(b1-3)GlcNAc
# In short: as §1
# [22] = target: Gal(a1-2)Gal
# In short: as §1
# [23] = target: Gal(a1-3)Gal
# In short: as §1
# [24] = target: Gal(a1-3)Gal(b1-3)GlcNAc
# In short: as §1
# [25] = target: Gal(a1-3)Gal(b1-3)GlcNAc(b1-2)Man
# In short: as §1
# [26] = target: Gal(a1-3)Gal(b1-3)GlcNAc(b1-2)Man(a1-3)[Gal(a1-3)Gal(b1-3)GlcNAc(b1-2)Man(a1-6)]Man(b1-4)GlcNAc(b1-4)GlcNAc
# In short: as §1
# [27] = target: Gal(a1-3)Gal(b1-3)GlcNAc(b1-3)GalNAc
# In short: as §1
# [28] = target: Gal(a1-3)Gal(b1-3)GlcNAc(b1-6)GalNAc
# In short: as §1
# [29] = target: Gal(a1-3)Gal(b1-3)[Fuc(a1-4)]GlcNAc(b1-2)Man(a1-3)[Gal(a1-3)Gal(b1-3)[Fuc(a1-4)]GlcNAc(b1-2)Man(a1-6)]Man(b1-4)GlcNAc(b1-4)GlcNAc
# In short: as §1
# [30] = target: Gal(a1-3)Gal(b1-4)Glc
# In short: as §1
# [31] = target: Gal(a1-3)Gal(b1-4)GlcNAc
# In short: as §1
# [32] = target: Gal(a1-3)Gal(b1-4)GlcNAc(b1-2)Man
# In short: as §1
# [33] = target: Gal(a1-3)Gal(b1-4)GlcNAc(b1-2)Man(a1-3)[Gal(a1-3)Gal(b1-4)GlcNAc(b1-2)Man(a1-6)]Man(b1-4)GlcNAc(b1-4)GlcNAc
# In short: as §1
# [34] = target: Gal(a1-3)Gal(b1-4)GlcNAc(b1-3)GalNAc
# In short: as §1
# [35] = target: Gal(a1-3)Gal(b1-4)GlcNAc(b1-6)GalNAc
# In short: as §1
# [36] = target: Gal(a1-3)Gal(b1-4)[Fuc(a1-3)]GlcNAc
# In short: as §1
# [37] = target: Gal(a1-3)Gal(b1-4)[Fuc(a1-3)]GlcNAc(b1-2)Man(a1-3)[Gal(a1-3)Gal(b1-4)[Fuc(a1-3)]GlcNAc(b1-2)Man(a1-6)]Man(b1-4)GlcNAc(b1-4)GlcNAc
# In short: as §1
binder,measurement,setting,value
B1,glycan array binding signal (z-score),[1],-0.476
same,glycan array binding signal (z-score),[2],-0.568
same,glycan array binding signal (z-score),[3],0.876
same,glycan array binding signal (z-score),[4],-0.448
same,glycan array binding signal (z-score),[5],0.069
same,glycan array binding signal (z-score),[6],-0.414
same,glycan array binding signal (z-score),[7],-0.043
same,glycan array binding signal (z-score),[8],-0.304
same,glycan array binding signal (z-score),[9],-0.109
same,glycan array binding signal (z-score),[10],-0.343
same,glycan array binding signal (z-score),[11],0.003
same,glycan array binding signal (z-score),[12],-0.181
same,glycan array binding signal (z-score),[13],-0.027
same,glycan array binding signal (z-score),[14],1.14
same,glycan array binding signal (z-score),[15],0.128
same,glycan array binding signal (z-score),[16],-0.316
same,glycan array binding signal (z-score),[17],-0.209
same,glycan array binding signal (z-score),[18],0.116
same,glycan array binding signal (z-score),[19],-0.298
same,glycan array binding signal (z-score),[20],2.96
same,glycan array binding signal (z-score),[21],-0.36
same,glycan array binding signal (z-score),[22],-0.017
same,glycan array binding signal (z-score),[23],0.392
same,glycan array binding signal (z-score),[24],1
same,glycan array binding signal (z-score),[25],0.513
same,glycan array binding signal (z-score),[26],0.099
same,glycan array binding signal (z-score),[27],-0.265
same,glycan array binding signal (z-score),[28],0.265
same,glycan array binding signal (z-score),[29],0.321
same,glycan array binding signal (z-score),[30],-0.308
same,glycan array binding signal (z-score),[31],-0.253
same,glycan array binding signal (z-score),[32],-0.44
same,glycan array binding signal (z-score),[33],-0.31
same,glycan array binding signal (z-score),[34],-0.013
same,glycan array binding signal (z-score),[35],-0.055
same,glycan array binding signal (z-score),[36],0.067
same,glycan array binding signal (z-score),[37],3.77
